Data published in PubChem BioAssay AID588795 (National Center for Advancing Translational Sciences (NCATS), 2011).
Hit rate of the full screen: of about 390,000 compounds, about 1,400 (0.36%) were called active. Inconclusive results, whose numbers are uncertain, are shown with a selection of clear calls. Calls follow the shape of the dose curve; as a rule, active = well fitted inhibition curve with a large enough effect; inconclusive = small, poorly fitted or top-dose-only effect; inactive = no such curve, though single readings can be large or run the other way. Where the call is inconclusive, the potency comes from a doubtful curve fit.

Each molecule was assayed against Flap endonuclease 1 (Homo sapiens) (UniProt P39748) (assay: qHTS Assay for the Inhibitors of Human Flap endonuclease 1 (FEN1).). Conditions: Recombinant FEN1 flap cleavage, fluorescence, 15 min; series mostly up to 114 µM.
Source text: The major human flap endonuclease FEN1 is an efficient structure-specific enzyme that recognizes and cleaves a 5'-unannealed DNA flap. It belongs to the RAD2 family nucleases, which are involved in DNA metabolism and are highly conserved in prokaryotes and eukaryotes. FEN1 is a key enzyme in DNA replication, repair and maintenance of genomic stability. 5'-flap removal by FEN1 is critical for Okazaki fragment processing during lagging strand DNA synthesis, long-patch base excision repair (LP BER), and regulating or facilitating recombination events. […] Deletion of the yeast FEN1 gene, i.e. rad27, results in an increased frequency of short DNA (3-32 bp) repeats, micro- and mini-satellite formation, trinucleotide repeat expansion, spontaneous recombination events, and a severe growth defect in association with cell cycle arrest in late S/G2 phase. […] Cells from fen1-/- blastocysts show increased apoptotic cell death after ionizing radiation treatment, and chicken cells lacking the fen1 gene are hypersensitive to DNA alkylating agents, e.g. methylmethane sulfonate (MMS) and N-methyl-N'-nitro-N-nitrosoguanidine (MNNG), as well as hydrogen peroxide.
NIH Chemical Genomics Center [NCGC]
NIH Molecular Libraries Probe Centers Network [MLPCN]
Assay Submitter (PI): David Wilson, National Institute of Aging
Three uL of reagents (buffer in column 3 and 4 as negative control and 10 nM FEN1 in columns 1, 2, and 5-48) were dispensed into 1,536-well black solid-bottomed plate. Compounds (23 nL) were transferred via Kalypsys pin tool equipped with 1536-pin array (10 nL slotted pins, V&P Scientific, San Diego, CA). The plates were then incubated for 15 min at room temperature, and 1 uL substrate (50 nM final concentration) were added to start the reaction read twice at 0 min read and 15 min on ViewLux reader. Throughout the screen, reagent bottle and all liquid lines were chilled and made light-tight to minimize reagent degradation. All screening operations were performed on a fully integrated robotic system (Kalypsys, San Diego, CA) containing one RX-130 and two RX-90 anthropomorphic robotic arms (Staubli, Duncan, SC). Library plates were screened starting from the lowest and proceeding to the highest concentration, and a "double-dipping" step of the highest concentration was required to access higher concentrations of compounds. Vehicle-only plates, with DMSO being pin-transferred to the entire column 5-48 compound area, were inserted uniformly at the beginning and the end of each library in order to monitor for and record any shifts in the background, which can be affected by reagent dispensers or loss in enzyme activity overtime. Screening data was corrected, normalized, and concentration-effect relationships were derived by using publicly-available curve fitting algorithms developed in-house (http://ncgc.nih.gov/pub/openhts). A four parameter Hill equation was fitted to the concentration-response data by minimizing the residual error between the modeled and observed responses.
Also: nearly all actives have a fitted effect of over 65% in size.
Potency is read from the fitted curve at half-maximal effect; tags tell the direction and shape of the fitted curve.

Sequence of UniProt P39748 (P39748 whole entry, looked up, the tested form may be a part): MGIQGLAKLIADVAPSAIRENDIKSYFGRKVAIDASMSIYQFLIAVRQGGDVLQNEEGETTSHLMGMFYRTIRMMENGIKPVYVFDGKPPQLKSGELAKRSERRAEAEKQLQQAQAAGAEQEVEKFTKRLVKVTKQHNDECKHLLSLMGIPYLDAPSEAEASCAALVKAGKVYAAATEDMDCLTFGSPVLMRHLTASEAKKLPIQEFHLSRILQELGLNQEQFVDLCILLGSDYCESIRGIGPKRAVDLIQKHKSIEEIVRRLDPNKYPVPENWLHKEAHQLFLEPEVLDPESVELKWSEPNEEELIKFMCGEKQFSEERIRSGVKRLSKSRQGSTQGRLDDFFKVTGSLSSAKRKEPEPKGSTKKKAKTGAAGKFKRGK

Row | SMILES | Potency
1 | CC1(C)C[C@H]2C=C(C=O)[C@]3(C=O)C[C@]3(C)[C@H]2C1 | inactive
2 | CNC(CC(C)C)C(=O)NC1C(=O)NC(CC(N)=O)C(=O)NC2C(=O)NC3C(=O)NC(C(=O)NC(C(=O)O)c4cc(O)cc(O)c4-c4cc3ccc4O)C(O)c3ccc(c(Cl)c3)Oc3cc2cc(c3OC2OC(CO)C(O)C(O)C2OC2CC(C)(N)C(O)C(C)O2)Oc2ccc(cc2Cl)C1O (stereo not given) | inactive
3 | OC(Cn1c2ccccc2c2ccccc21)C[n+]1cccc2ccccc21 (stereo not given) | inconclusive: 89.1 µM [inhibitor, single point]
4 | N#Cc1c(/N=C/c2c(O)n(Cc3ccco3)c(=O)[nH]c2=O)sc2c1CCCC2 | inconclusive: 79.4 µM [inhibitor, partial curve]
5 | COC(=O)C1=C(c2ccc(F)cc2OCc2ccccc2)C[C@@H]2CC[C@H]1N2C(=O)NCc1ccc(OC)c(OC)c1 | inconclusive: 89.1 µM [inhibitor, partial curve, poor fit]
6 | CCCCN1C(=O)/C(=C/c2ccc(N(C)C)cc2)C(=O)N(Cc2ccco2)C1=O | inconclusive: 89.1 µM [inhibitor, single point]
7 | O=C1NC(=O)N(c2cccc(F)c2)C(=O)/C1=C/c1ccc(N2CCOCC2)cc1 | inactive
8 | Cc1cc(C=C(C#N)C#N)ccc1N1CCCC1 | inconclusive: 89.1 µM [inhibitor, single point]
9 | O=P(Nc1ccccc1)(Nc1ccccc1)Oc1cccc(Cl)c1 | inconclusive: 89.1 µM [inhibitor, partial curve, poor fit]
10 | CCC(=NCc1ccc2c(c1)OCO2)c1c(O)n(C2CCCCC2)c(=O)[nH]c1=O | inconclusive: 89.1 µM [inhibitor, partial curve, poor fit]
11 | O=C(O)Cn1cc(/C=C2\C(=O)NC(=O)N(c3ccc(Cl)cc3)C2=O)c2ccccc21 | inconclusive: 17.8 µM [inhibitor, full curve]
12 | COc1ccc(C(=O)NCCn2cc(SC(C)c3ccccc3)c3ccccc32)cc1OC (stereo not given) | inconclusive: 63.1 µM [inhibitor, partial curve, poor fit]
13 | CN1C(=O)NC(=O)/C(=C/c2ccc([N+](=O)[O-])s2)C1=O | inconclusive: 25.1 µM [inhibitor, full curve]
14 | Nc1c(C(=O)NCCN2CCOCC2)c2nc3ccccc3nc2n1Cc1ccco1 | inconclusive: 50.1 µM [inhibitor, partial curve, poor fit]
15 | O=C1NC(=S)N(C2CC2)C(=O)/C1=C/c1ccc2c(c1)CCN2CCCCl | inconclusive: 50.1 µM [inhibitor, partial curve, poor fit]
